For 35 compounds, gametocyte viability results are on record in the supplement of paper PMC12297408.

For the test, the system named is Plasmodium falciparum NF54/iGP1_RE9H ulg8 stage V gametocytes. The test is described as follows: gametocyte viability (luciferase signal relative to DMSO control) (% of DMSO control); higher = less gametocytocidal activity, active = 50 or less. As to conditions: exposure time: 72 h. The method in brief:
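In 96-well plates holding nanolitre spots of compound (10 mM DMSO stocks), NF54/iGP1_RE9Hulg8 stage V gametocytes from day 12 were added at ~2.5% gametocytemia and 3% hematocrit in medium with 0.5% Albumax II, giving single wells at 10 µM or 1 µM. Incubation lasted 72 h at 37 °C. Each 90 µl sample then received 10 µl D-luciferin (30 mg/ml) before luminescence reading on an IVIS Lumina II, and viability was normalized to the mean of DMSO vehicle wells on the same plate.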

Where a name gives a salt, the structure may show the parent alone. The whole screen tested about 1,300 compounds, of which about 40 (3%) showed activity. The list shows a part of the results.

`CC(=O)Oc1ccccc1C(=O)Oc1ccccc1C(=O)O` [Acetylsalicylsalicylic acid]: the gametocyte viability was inactive: 97.3 (concentration: 1 µM) and inactive: 94.6 (concentration: 10 µM).

On to `CC(C)n1c(/C=C/C(O)CC(O)CC(=O)O)c(-c2ccc(F)cc2)c2ccccc21` (stereo not given) [Fluvastatin sodium salt], for which the gametocyte viability is inactive: 89.5 (concentration: 1 µM) and inactive: 91.9 (concentration: 10 µM).

Regarding `CCN(CC)CCOC(=O)c1ccc(N)cc1` [Procaine hydrochloride], the gametocyte viability by setting is: (concentration: 1 µM) inactive: 99.1; (concentration: 10 µM) inactive: 94.8.

For `Cc1c(C)c2c(c(C)c1O)CCC(C)(C(=O)O)O2` (stereo not given) [Trolox], the gametocyte viability is inactive: 88.2 (concentration: 1 µM) and inactive: 87.5 (concentration: 10 µM).

In the case of `CC[C@H](C)C(=O)O[C@H]1C[C@@H](C)C=C2C=C[C@H](C)[C@H](CC[C@@H]3C[C@@H](O)CC(=O)O3)[C@H]21` [Lovastatin], the gametocyte viability is inactive: 85.3 (concentration: 1 µM) and inactive: 81.4 (concentration: 10 µM).

With `CN(C)CCn1nnnc1SCC1=C(C(=O)O)N2C(=O)[C@@H](NC(=O)Cc3csc(N)n3)[C@H]2SC1` [Cefotiam hydrochloride], the gametocyte viability was inactive: 85 (concentration: 1 µM) and inactive: 82.3 (concentration: 10 µM).

Consider `CC(=O)N[C@@H](CS)C(=O)O` [Acetylcysteine], for which the gametocyte viability is inactive: 92.9 (concentration: 1 µM) and inactive: 89.2 (concentration: 10 µM).

As for `CC(=O)O[C@H]1C[C@@]2(C)[C@@H](C[C@@H](O)[C@H]3[C@@]4(C)CC[C@@H](O)[C@@H](C)[C@@H]4CC[C@@]32C)/C1=C(\CCC=C(C)C)C(=O)O` [Fusidic acid sodium salt], the gametocyte viability reads like this: (concentration: 1 µM) inactive: 83; (concentration: 10 µM) inactive: 85.5.

Regarding `CC1=C(/C=C/C(C)=C/C=C/C(C)=C/C(=O)O)C(C)(C)CCC1` [Retinoic acid], the gametocyte viability by setting is: (concentration: 1 µM) inactive: 82.1; (concentration: 10 µM) inactive: 64.

Consider `NC(=O)c1cc[n+](CC2=C(C(=O)[O-])N3C(=O)[C@@H](NC(=O)[C@@H](c4ccccc4)S(=O)(=O)O)[C@H]3SC2)cc1` [Cefsulodin sodium salt], for which the gametocyte viability (concentration: 1 µM) is inactive: 89.2 and the gametocyte viability (concentration: 10 µM) is inactive: 87.7.

As for `CC(=O)Oc1ccccc1C(=O)O` [Acetylsalicylic acid], the gametocyte viability by setting is: (concentration: 1 µM) inactive: 81.5; (concentration: 10 µM) inactive: 84.8.

For the compound `N=C(N)NS(=O)(=O)c1ccc(N)cc1` [Sulfaguanidine], the gametocyte viability was inactive: 90.6 (concentration: 1 µM) and inactive: 94.3 (concentration: 10 µM).

On to `CC1(C)[C@H](C(=O)O)N2C(=O)C[C@H]2S1(=O)=O` [Sulbactam], for which the gametocyte viability reads like this: (concentration: 1 µM) inactive: 86.3; (concentration: 10 µM) inactive: 90.

Regarding `Cc1ncc(CO)c(CO)c1O` [Pyridoxine hydrochloride], the gametocyte viability is, setting by setting: (concentration: 1 µM) inactive: 106; (concentration: 10 µM) inactive: 101.

`CCc1c(C)[nH]c2c1C(=O)C(CN1CCOCC1)CC2` (stereo not given) [Molindone hydrochloride]: the gametocyte viability (concentration: 1 µM) is inactive: 86.1 and the gametocyte viability (concentration: 10 µM) is inactive: 84.6.

With `CCC1(c2ccccc2)NC(=O)N(C)C1=O` (stereo not given) [Mephenytoin], the gametocyte viability was inactive: 83 (concentration: 1 µM) and inactive: 77 (concentration: 10 µM).

`N[C@@H]1CONC1=O` [D-cycloserine]: the gametocyte viability reads like this: (concentration: 1 µM) inactive: 86.9; (concentration: 10 µM) inactive: 85.8.

On to `O=C(O)COCCN1CCN(C(c2ccccc2)c2ccc(Cl)cc2)CC1` (stereo not given) [Cetirizine dihydrochloride], for which the gametocyte viability by setting is: (concentration: 1 µM) inactive: 96.2; (concentration: 10 µM) inactive: 96.

Regarding `C#C[C@]1(OC(C)=O)CC[C@H]2[C@@H]3CCC4=CC(=NO)CC[C@@H]4[C@H]3CC[C@@]21CC` (mixture of isomers) [Norgestimate], the gametocyte viability was inactive: 82.8 (concentration: 1 µM) and inactive: 85.1 (concentration: 10 µM).

For `Clc1ccc(CO/N=C(\Cn2ccnc2)c2ccc(Cl)cc2Cl)c(Cl)c1` [Oxiconazole Nitrate], the gametocyte viability is inactive: 83.7 (concentration: 1 µM) and inactive: 59.4 (concentration: 10 µM).

On to `CC(=O)O[C@]1(C(C)=O)CC[C@H]2[C@@H]3C=C(Cl)C4=CC(=O)[C@@H]5C[C@@H]5[C@]4(C)[C@H]3CC[C@@]21C` [Cyproterone acetate], for which the gametocyte viability was inactive: 95.4 (concentration: 1 µM) and inactive: 93 (concentration: 10 µM).

Take `Clc1ccc(Cn2c(CN3CCCC3)nc3ccccc32)cc1` [Clemizole hydrochloride]: the gametocyte viability is inactive: 85.4 (concentration: 1 µM) and inactive: 91.7 (concentration: 10 µM).

For the compound `COc1cc2nc(N(C)CCCNC(=O)C3CCCO3)nc(N)c2cc1OC` (stereo not given) [Alfuzosin hydrochloride], the gametocyte viability was inactive: 87.7 (concentration: 1 µM) and inactive: 83 (concentration: 10 µM).

In the case of `N=C(N)NC(=O)Cc1c(Cl)cccc1Cl` [Guanfacine hydrochloride], the gametocyte viability by setting is: (concentration: 1 µM) inactive: 81.7; (concentration: 10 µM) inactive: 76.9.

For the compound `Clc1ccc(CSC(Cn2ccnc2)c2ccc(Cl)cc2Cl)cc1` (stereo not given) [Sulconazole nitrate], the gametocyte viability is inactive: 95.6 (concentration: 1 µM) and inactive: 68.9 (concentration: 10 µM).

In the case of `CC1CNc2c(cccc2S(=O)(=O)N[C@@H](CCCNC(=N)N)C(=O)N2CC[C@@H](C)C[C@@H]2C(=O)O)C1` (stereo not given in full) [Argatroban], the gametocyte viability by setting is: (concentration: 1 µM) inactive: 91.7; (concentration: 10 µM) inactive: 77.5.

Regarding `CN(C)CCN(Cc1ccccc1)c1ccccn1` [Tripelennamine hydrochloride], the gametocyte viability by setting is: (concentration: 1 µM) inactive: 89.8; (concentration: 10 µM) inactive: 61.

`Nc1ccn([C@@H]2O[C@H](CO)[C@@H](O)C2(F)F)c(=O)n1` [Gemcitabine]: the gametocyte viability is, setting by setting: (concentration: 1 µM) inactive: 81.3; (concentration: 10 µM) inactive: 85.5.

Regarding `CN1C(=O)CC(c2ccccc2)C1=O` (stereo not given) [Phensuximide], the gametocyte viability reads like this: (concentration: 1 µM) inactive: 87.7; (concentration: 10 µM) inactive: 83.1.

On to `CC(=O)O[C@@]12CO[C@@H]1C[C@H](O)[C@@]1(C)C(=O)[C@H](O)C3=C(C)[C@@H](OC(=O)[C@H](O)[C@@H](NC(=O)OC(C)(C)C)c4ccccc4)C[C@@](O)([C@@H](OC(=O)c4ccccc4)[C@H]21)C3(C)C` [Docetaxel], for which the gametocyte viability (concentration: 1 µM) is inactive: 127 and the gametocyte viability (concentration: 10 µM) is inactive: 117.

For the compound `C[C@]12CC[C@@H]3c4ccc(O)cc4CC[C@H]3[C@@H]1CC[C@@H]2O` [Estradiol-17 beta], the gametocyte viability (concentration: 1 µM) is inactive: 69.7 and the gametocyte viability (concentration: 10 µM) was active: 41.9.

Turning to `CCCN(CCC)S(=O)(=O)c1ccc(C(=O)O)cc1` [Probenecid], the gametocyte viability (concentration: 1 µM) was inactive: 87.8 and the gametocyte viability (concentration: 10 µM) was inactive: 84.1.

As to `CN(C)c1cc(NC(=O)CNC(C)(C)C)c(O)c2c1C[C@H]1C[C@H]3[C@H](N(C)C)C(=O)C(C(N)=O)=C(O)[C@@]3(O)C(=O)C1=C2O` [Tigecycline], the gametocyte viability was inactive: 86.6 (concentration: 1 µM) and inactive: 87.9 (concentration: 10 µM).

Regarding `CC(=O)[C@H]1CC[C@H]2[C@@H]3CCC4=CC(=O)CC[C@]4(C)[C@H]3CC[C@]12C` [Progesterone], the gametocyte viability was inactive: 86.2 (concentration: 1 µM) and inactive: 83.1 (concentration: 10 µM).

`CN(C)CC/C=C1/c2ccccc2Sc2ccc(Cl)cc21` [Chlorprothixene hydrochloride]: the gametocyte viability is inactive: 97.1 (concentration: 1 µM) and inactive: 84.1 (concentration: 10 µM).
